Assay results taken from PubChem BioAssay AID485294 (National Center for Advancing Translational Sciences (NCATS), 2010).
Among all 370,000 compounds or so, about 150 (0.041%) were called active. The inconclusive results got no clear call from the source; some entries with a clear call stand among them for comparison. Calls follow the shape of the dose curve; as a rule, active = well fitted inhibition curve with a large enough effect; inconclusive = small, poorly fitted or top-dose-only effect; inactive = flat fitted curve, though single readings scatter. Potencies of inconclusive entries are left out as doubtful fits.

Target: Beta-lactamase (Escherichia coli (strain K12)) (UniProt P00811)
UniProt P00811, sequence (P00811 whole entry, looked up): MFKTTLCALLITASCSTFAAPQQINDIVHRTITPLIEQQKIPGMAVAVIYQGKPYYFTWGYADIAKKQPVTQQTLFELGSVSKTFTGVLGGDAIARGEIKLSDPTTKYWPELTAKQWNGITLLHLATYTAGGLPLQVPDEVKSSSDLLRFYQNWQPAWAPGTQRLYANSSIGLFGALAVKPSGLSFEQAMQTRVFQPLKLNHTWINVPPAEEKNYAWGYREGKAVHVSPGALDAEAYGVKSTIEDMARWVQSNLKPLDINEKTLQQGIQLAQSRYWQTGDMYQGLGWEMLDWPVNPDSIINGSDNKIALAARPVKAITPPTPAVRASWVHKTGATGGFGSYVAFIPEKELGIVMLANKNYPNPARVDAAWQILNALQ
Assay: qHTS Inhibitors of AmpC Beta-Lactamase (assay with detergent); also: nearly all actives have a fitted effect of over 25% in size;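 as to activity change, negative = inhibition: 0% = no-compound wells and -100% = no-enzyme wells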
Settings: AmpC hydrolysis of nitrocefin, absorbance 480 nm, 0.01% Triton; activity change, negative = inhibition: at 114 µM (top of the series)
Procedure, shortened: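 20 mM phosphate pH 7.0 + 0.01% (detergent screen) or 0.0001% Triton X-100; 5.3 nM AmpC reagent; cpd preinc 15 min RT; nitrocefin (800 uM stock) to start; A480 q20 s × 4 min; Activity was normalised to no-enzyme and no-compound control wells.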
Potency is read from the fitted curve at half-maximal effect; tags tell the direction and shape of the fitted curve.

| SMILES | activity change, negative = inhibition | Potency |
| --- | --- | --- |
| Cc1cc(C)n(-c2ccc(C(=O)N3CC(C)OC(C)C3)cc2)n1 (stereo not given) | inactive: 1.75% |  |
| COc1ccc(C2=CC(c3ccccc3Cl)n3nc(-c4ccc(C)cc4)nc3N2)cc1 (stereo not given) | inactive: 4.02% |  |
| COc1ccc(NC2=C(NC(C)=O)C(=O)c3ccccc3C2=O)cc1 | inactive: 0.353% |  |
| CCOC(=O)Cn1c(=O)n(-c2ccccc2OC)c2nc(-c3ccccc3)nc(C(N)=O)c21 |  | inconclusive [inhibitor, full curve, poor fit] |
| COc1cc2c(cc1NC(=O)COc1ccc(Br)c(C)c1)oc1ccccc12 | inactive: -5.59% |  |
| COc1ccc2c(c1)CC[C@@H]1[C@@H]2CC[C@]2(C)[C@@H](C(C)=O)C[C@@H]12 |  | inconclusive [inhibitor, full curve] |
| COc1ccccc1NC(=O)c1ccc(NC(=O)CN(C)Cc2ccccc2F)cc1 |  | inconclusive [inhibitor, partial curve] |
| Cc1ccc2nc(NCc3ccccc3)[nH]c2c1 | inactive: -2.25% |  |
| COc1ccc(N2C(=O)C3CCCN3C2c2cc(OC)c(OC)c(OC)c2)cc1 (stereo not given) |  | inconclusive [inhibitor, full curve] |
| COCCN1Cc2cccc(C(=O)Nc3cccc(C)c3C)c2C1=O |  | inconclusive [inhibitor, full curve, poor fit] |
| CCOc1ccccc1NC(=O)c1csc(C)c1C |  | inconclusive [inhibitor, full curve, poor fit] |
| COc1ccc(-c2onc(C)c2C)cc1S(=O)(=O)N1CCc2ccccc21 | inactive: 3.29% |  |
| O=C(O)COn1c(-c2ccccc2)nc2ccc([N+](=O)[O-])cc21 | inactive: 2.06% |  |
| C#CCSc1nc(-c2cccs2)ccc1C#N | inactive: -8.68% |  |
| CCNc1ccc(C(=O)Nc2ccc3nc(C)sc3c2)cc1[N+](=O)[O-] | inactive: -1.04% |  |
| Cc1cc(Nc2ccccc2F)n2nc(C)nc2n1 |  | inconclusive [inhibitor, partial curve] |
| C=CCNC(=S)/C(=C(/[O-])c1ccccc1Br)[n+]1ccccc1 |  | inconclusive [inhibitor, partial curve, poor fit] |
| COc1ccc(C(=O)Nc2cccc(/C(C)=N\NC(=O)c3ccoc3C)c2)cc1OC | inactive: 0.714% |  |
| CN1C(=O)C(C)(C)c2cc(S(=O)(=O)N3CCCC(C(=O)NCc4ccc(F)cc4)C3)ccc21 (stereo not given) |  | inconclusive [inhibitor, full curve, poor fit] |
| CCN(CC)C(=O)CSc1nc(C)cc(C)c1C#N |  | inconclusive [inhibitor, full curve] |
| Cc1nnc(-c2ccccc2)c[n+]1[O-] |  | inconclusive [inhibitor, partial curve, poor fit] |
| FC(F)(F)c1ccc(Cl)c(NC(=S)NC2CC2)c1 |  | inconclusive [inhibitor, partial curve] |
| CCOC(=O)C1=C(CC)OC(N)=C(C#N)C1c1ccc(OC)c(C)c1OC (stereo not given) |  | inconclusive [inhibitor, partial curve, poor fit] |
| Cc1ccccc1NC(=O)OCCN1CCN(Cc2ccccc2)CCC1=O |  | inconclusive [inhibitor, single point] |

| SMILES | activity change, negative = inhibition | Potency |
| --- | --- | --- |
| CCCOP(=O)(OCCC)c1nc(-c2ccccc2)oc1NCc1ccccc1 |  | inconclusive [inhibitor, single point] |
| COc1ccccc1N1CCN(C(c2cccs2)C(C)NS(=O)(=O)c2ccccc2)CC1 (stereo not given) |  | inconclusive [inhibitor, full curve] |
| COc1ccc(C(C)=O)cc1COC(=O)CCCN1C(=O)c2ccccc2C1=O |  | inconclusive [inhibitor, partial curve, poor fit] |
| O=C(NCc1cccc(Cl)c1)c1cccnc1 |  | inconclusive [inhibitor, full curve] |
| Oc1c(C(c2cccc(F)c2)N2CCN(Cc3ccccc3)CC2)sc2ncnn12 (stereo not given) |  | inconclusive [inhibitor, full curve, poor fit] |
| COc1ccc(-n2c(O)c(/C=C3\C=Nc4ccc(Br)cc43)c(=O)[nH]c2=O)cc1 |  | inconclusive [inhibitor, partial curve, poor fit] |
| O=c1cc(O)n(-c2ccccc2)c(=S)[nH]1 |  | inconclusive [inhibitor, single point] |
| CCOc1ccc(Nc2nc(N)c(C(=O)c3ccccc3Cl)s2)cc1 | inactive: 0.531% |  |
| CCN(CC)S(=O)(=O)c1ccc(NC(=O)c2nn(C)c3c2CSc2ccccc2-3)cc1 | inactive: -4.84% |  |
| CCOC(=O)N1CCN(C(=S)Nc2cc(OC)c(OC)cc2C(=O)OC)CC1 |  | inconclusive [inhibitor, partial curve] |
| O=C(c1cc(-c2ccc(Br)cc2)n[nH]1)N1CCN(S(=O)(=O)c2ccc(Br)s2)CC1 | inactive: -3.25% |  |
| COC(=O)c1cccc(N2C(=O)C3CC=CCC3C2=O)c1 (stereo not given) |  | inconclusive [inhibitor, partial curve, poor fit] |
| COc1ccc(C(=O)OCC(=O)NC2CCCCCC2)cc1OC |  | inconclusive [inhibitor, partial curve] |
| Cc1ccc(-n2c(-c3cccnc3)n[nH]c2=S)c(C)c1 | inactive: -6.61% |  |
| COC(=O)CC1Sc2ccccc2NC1=O (stereo not given) |  | inconclusive [inhibitor, full curve, poor fit] |
| CN(C)S(=O)(=O)NCC1CCCN(Cc2ccc(-c3ccccc3)cc2)C1 (stereo not given) |  | inconclusive [inhibitor, full curve, poor fit] |
| O=C(COc1ccc2c3c(c(=O)oc2c1)CCC3)Nc1ccccn1 |  | inconclusive [inhibitor, full curve, poor fit] |
| CCN(C(=O)CN1C(=O)S/C(=C\c2cccc(Cl)c2)C1=O)C1CCS(=O)(=O)C1 (stereo not given) | inactive: -2.62% |  |
| O=C(NC1CCCCC1)NC1CC2CCC(C1)N2C(=O)NC1CCCCC1 (stereo not given) |  | inconclusive [inhibitor, single point] |
| Cc1cc2c(cc1C)-c1c(ssc1=Nc1ccc(S(N)(=O)=O)cc1)C(C)(C)N2 |  | inconclusive [inhibitor, single point] |
| Cc1cccc(-n2c(=O)[nH]c3c(C(N)=O)nc(C(C)C)nc32)c1 |  | inconclusive [inhibitor, full curve] |
| CCOC(=O)/C(=C/c1ccc(OC(=O)c2ccccc2)cc1)C(C)=O | inactive: -8.35% |  |
| COc1ccc(C(=O)CN2CCN(S(=O)(=O)c3ccc(F)cc3)CC2)cc1 | inactive: -1.36% |  |
| CCN(CC(=O)Nc1ccc(NC(C)=O)cc1)C(=O)/C=C/c1ccc([N+](=O)[O-])cc1 |  | inconclusive [inhibitor, full curve, poor fit] |

| SMILES | activity change, negative = inhibition | Potency |
| --- | --- | --- |
| Cc1cc2oc(=O)cc(CN3CCCCC3C)c2c(C)c1Cl (stereo not given) |  | inconclusive [inhibitor, partial curve, poor fit] |
| O=C(COC(=O)c1cc(S(=O)(=O)N2CCCCC2)ccc1N1CCOCC1)c1ccccc1 |  | inconclusive [inhibitor, partial curve] |
| COc1ccc(Br)c2c1-c1nc(NC(=O)c3ccc(F)cc3)sc1C2 | inactive: -4.5% |  |
| CCC1CCC(C(=O)NNC(=O)c2cc(-c3ccco3)[nH]n2)CC1 (stereo not given) | inactive: 1.2% |  |
| Cc1ccc(NC(=O)C2COc3ccccc3O2)nc1 (stereo not given) | inactive: 6.06% |  |
| COc1ccc(-c2nn(CC(=O)NCCc3ccccc3)c(=S)n2C)cc1 | inactive: -3.27% |  |
| COc1cccc(C(=O)NCc2ccc3c(c2)OCO3)c1 |  | inconclusive [inhibitor, full curve, poor fit] |
| CCOc1ccc(C(=O)NCc2ccccc2OC)cc1 | inactive: -3.79% |  |
| CS(=O)(=O)N1CCN(C(=O)c2ccc(F)cc2)CC1 |  | inconclusive [inhibitor, full curve, poor fit] |
| COC(=O)C1=C(C)N(Cc2ccccc2)C(=NCCc2ccccn2)N[C@H]1c1cccc(F)c1 |  | inconclusive [inhibitor, full curve, poor fit] |
| CCc1ccccc1NS(=O)(=O)c1cc(C)ccc1OC |  | inconclusive [inhibitor, full curve, poor fit] |
| CCc1ccc(/C=N/NC(=O)c2cc(C3CC3)nc3ccc(Br)cc23)s1 | inactive: 1.46% |  |
| O=C(O)C1CCCC2CN3CCc4c([nH]c5ccccc45)C3C(O)C21 (stereo not given) |  | inconclusive [inhibitor, full curve, poor fit] |
| Cc1ccc(NC2=C([N+](=O)[O-])CS(=O)(=O)C2)cc1 | inactive: -3.05% |  |
| COc1ccc(-c2nnc(SCC(=O)Nc3ncc(C)s3)n2-c2ccccc2)cc1OC |  | inconclusive [inhibitor, full curve, poor fit] |
| Cc1ccc(Cl)cc1NC(=S)N(CCCN1CCN(C)CC1)Cc1cccs1 |  | inconclusive [inhibitor, partial curve, poor fit] |
| CN(Cc1ccc(F)cc1)Cc1nc(-c2cnccn2)no1 | inactive: 3.53% |  |
| CCC(C)[C@@H](C(=O)Nc1ccc(OC)c(OC)c1)N1Cc2ccccc2C1=O (stereo not given in full) |  | inconclusive [inhibitor, full curve] |
| COc1cccc(NC(=O)Nc2c(C)n(C)n(-c3ccccc3)c2=O)c1 | inactive: -5.32% |  |
| CN(C)CCOCCOc1ccccc1-c1ccccc1 |  | inconclusive [inhibitor, full curve, poor fit] |
| COC(=O)C1=C(c2ccc(-c3ccccc3)c(F)c2)C[C@@H]2CC[C@H]1N2C(=O)NCCc1ccccc1 | inactive: 2.91% |  |
| COc1ccc(NC(=O)COc2nc(N(C)C)nc(N(C)C)n2)cc1 |  | inconclusive [inhibitor, full curve, poor fit] |
